# Among all 110,000 compounds or so, about 230 (0.21%) showed an effect of 50% or more. This is one part of the list.
# Molecular target: DPAP1 (Plasmodium falciparum, UniProt Q8IIJ9)
# Test: primary screen, percent inhibition; read by cleavage of a fluorogenic dipeptide substrate; higher = more effect of the substance
# Design: species or system P. falciparum D10 trophozoite lysates; single well
# 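Further: 30 min substrate incubation versus DMSO and 10 µM JCP410 controls.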
# Chain of DPAP1 (Q8IIJ9 whole entry, looked up): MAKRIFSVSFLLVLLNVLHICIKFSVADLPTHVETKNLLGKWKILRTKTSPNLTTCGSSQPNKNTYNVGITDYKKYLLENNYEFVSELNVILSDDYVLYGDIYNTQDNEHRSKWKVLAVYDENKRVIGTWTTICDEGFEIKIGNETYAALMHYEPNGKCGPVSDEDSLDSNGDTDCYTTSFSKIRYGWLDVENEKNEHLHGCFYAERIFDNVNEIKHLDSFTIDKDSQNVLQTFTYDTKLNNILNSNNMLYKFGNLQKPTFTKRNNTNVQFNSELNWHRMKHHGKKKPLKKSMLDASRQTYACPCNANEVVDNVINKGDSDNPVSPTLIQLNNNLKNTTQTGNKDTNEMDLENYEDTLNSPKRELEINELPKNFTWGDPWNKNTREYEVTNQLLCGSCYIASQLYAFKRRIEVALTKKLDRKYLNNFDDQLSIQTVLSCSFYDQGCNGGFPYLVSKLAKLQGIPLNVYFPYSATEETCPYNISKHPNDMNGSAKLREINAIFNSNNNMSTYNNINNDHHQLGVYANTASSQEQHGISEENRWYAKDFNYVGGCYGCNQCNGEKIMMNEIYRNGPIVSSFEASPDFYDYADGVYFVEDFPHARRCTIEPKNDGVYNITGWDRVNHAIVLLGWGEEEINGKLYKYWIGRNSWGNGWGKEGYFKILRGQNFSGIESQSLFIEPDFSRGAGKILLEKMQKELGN
row,Structure (SMILES),% Inhibition @ 10 uM
1,CCOC(=O)c1c(NC(=O)Cc2coc3ccc(OC)cc23)sc(C)c1C,3.66%
2,CC(C(=O)NCc1ccccc1)N1C(=O)C2CC=C(Cl)CC2C1=O (stereo not shown),5.54%
3,COc1ccccc1C(=O)Nc1cccc(NC(=O)c2ccccc2OC)c1,-4.43%
4,Cc1ccccc1CC1[Se]C(N)=NC1=O (stereo not shown),1.03%
5,Cc1ccc(-n2nc(C)c3c(C)cc(=O)n(CC(=O)NCCc4ccccc4)c32)cc1,3.66%
6,Cc1ccc(CS(=O)(=O)CCC(=O)N2CCc3ccccc3C2)cc1,2.18%
7,CCN(Cc1ccccc1)C(=O)Cn1ncc2c3cc(C)ccc3nc-2c1O,6.5%
8,CC(CNc1cnn(C23CC4CC(CC(C4)C2C(=O)O)C3)c(=O)c1Cl)c1ccccc1 (stereo not shown),1.15%
9,CCCCOc1ccc(C(=O)OC(C)CN(C)C)cc1 (stereo not shown),-0.0735%
10,Cn1cccc1/C=N/n1c(S)nnc1-c1ccccc1,4.18%
11,COc1cccc(/C=C2\SC(N3CCCC(C)C3)=NC2=O)c1OC (stereo not shown),3.72%
12,Cc1cc(C)c(Cc2c(C)cc(C)c(/C=C(\C#N)C(N)=O)c2C)c(C)c1/C=C(/C#N)C(N)=O,-3.38%
13,C=CCn1c(=N)c(C(=O)NCCN2CCOCC2)cc2c(=O)n3ccccc3nc21,-3.27%
14,CC(=O)Nc1ccc(S(=O)(=O)Nc2cccc(C)c2)cc1,-6.22%
15,COc1ccc(/C=C/C(=O)NC2CCCCCC2)cc1OC,3.48%
16,COc1ccc(CN2CCN(c3ccc([N+](=O)[O-])cc3)CC2)c(C)c1C,7.8%
17,Cc1cc(C)c(S(=O)(=O)Nc2ccccc2C(=O)N2CCCC2)c(C)c1,4.05%
18,CCO/C(O)=C(\C#N)c1nc(O)nc2ccccc12,-3.33%
19,CC1=CC(=C2C(=O)c3ccccc3C2=O)C=C(C)N1Cc1ccccc1,7.05%
20,CCc1ccc(-c2cn3c(n2)sc2cc(C(=O)NCCCN4CCCC4=O)ccc23)cc1,2.73%
21,Cc1ccc(C)c(OCC(=O)Nc2nccs2)c1,-0.95%
22,CCCN1C/C(=C\c2ccc(N(C)C)cc2)C(=O)/C(=C/c2ccc(N(C)C)cc2)C1,1.63%

row,Structure (SMILES),% Inhibition @ 10 uM
1,O=C(NCc1ccccc1)c1ccc2c(c1)C(=O)N(Cc1cccnc1)C2=O,-0.132%
2,COc1ccc(CC(=O)Nc2sc3c(c2C#N)CCCCC3)cc1OC,-3.19%
3,CC(=O)Nc1ccc(NC(=O)c2ccc(C(C)(C)C)c(Br)c2)cc1,-11.6%
4,O=C(CN1C(=O)C2C3C=CC(C3)C2C1=O)NC1CCCc2ccccc21 (stereo not shown),1.26%
5,COc1ccccc1C1CC(=O)Nc2cc3c(cc21)OCCO3 (stereo not shown),1.93%
6,Cc1ccc(-c2csc(NC(=O)c3ccccc3Br)n2)cc1,4.54%
7,CCOP(C)(=O)CN1CCOCC1 (stereo not shown),-6.52%
8,O=C(CC(c1ccccc1)c1ccccc1)NCCn1ccc2ccccc21,-4.16%
9,C=CCN(CC(=O)Nc1c(C)cccc1CC)C(=O)SCC,3.56%
10,Cn1c(=O)c2c(ncn2CC(O)CN2CCCC2)n(C)c1=O (stereo not shown),-6.67%
11,Cc1ccc2nc(C)c3c(c2c1)OC(C)C3 (stereo not shown),2.65%
12,Cc1cc(C)c2c(n1)SCC(=O)N2CCCC(=O)NCc1ccco1,4.22%
13,CCNC(=S)NCCc1c(C)[nH]c2ccc(F)cc12,-2.16%
14,O=S(=O)(c1ccccc1)c1cnc2ccccc2c1NCc1ccccc1,-8.38%
15,CN(C)C(c1ccccc1)c1nnnn1C(/C=C\c1ccc(Cl)cc1Cl)C(C)(C)C (stereo not shown),2.5%
16,COC(=O)c1ccc(C2C(C(=O)c3ccccc3)C(C)Nc3nc4ccccc4n32)cc1 (stereo not shown),2.7%
17,O=C(CN1CCOCC1)NC1c2ccccc2CSc2ccccc21 (stereo not shown),-1.91%
18,CN(Cc1ccccc1)C(=O)CNC(=O)Cn1ccc2ccccc2c1=O,-2.49%
19,CSc1ccc(C2C3=C(O)CCCC3=NC(C)=C2C(=O)Nc2ccccn2)cc1 (stereo not shown),2.48%
20,Cc1ccc(S(=O)(=O)c2cnc3ccccc3c2N2CCOCC2)cc1C,-8.57%
21,COc1ccccc1NC(=O)c1sc(NC(=O)Cc2cccs2)c(C#N)c1C,-6.36%
22,COc1ccc(C2CC(=O)N(C)C3=C2C(=O)CC(C)(C)C3)c(OC)c1 (stereo not shown),-2.84%

row,Structure (SMILES),% Inhibition @ 10 uM
1,CC1=C(C#N)C(c2ccc3c(c2)OCO3)C2=C(O)CC(C)(C)CC2=N1 (stereo not shown),-2.53%
2,Cc1ccc(-c2nnc(C3CCN(S(=O)(=O)c4ccc(Br)s4)CC3)o2)cc1,5.53%
3,O=C(O)CSc1cccc2c(SCC(=O)O)cccc12,1.24%
4,O=C(O)COc1ccccc1/C=C1\SC(Nc2ccc(Br)cc2)=NC1=O,24%
5,CCN(CC)CCN(C)C/C(C)=C/c1ccccc1,-4.75%
6,Cc1ccc(C2C(=O)N(C3CCCC3)CC(=O)N2CCC2=CCCCC2)cc1 (stereo not shown),-4.06%
7,COc1ccc(Cl)cc1N(CC(=O)Nc1ccccc1C)S(C)(=O)=O,-7.23%
8,Clc1ccc(CN2CCN(C/C=C/c3ccccc3)CC2)c(Cl)c1,-0.192%
9,CC1(C)CC(CC(=O)O)(c2ccccc2)CCO1 (stereo not shown),2.62%
10,Cc1ccc2c(c1)c1c(n2C)C(C#N)CCC1 (stereo not shown),-3.48%
11,CCN(CC)C(=O)Cn1ncc2c3ccccc3n(Cc3c(C)cc(C)cc3C)c2c1=O,1.8%
12,FC(F)(F)c1cccc(N2CCN(Cc3ccccc3Br)CC2)c1,-1.92%
13,O=C1N=C(c2ccccc2)S/C1=C\c1cccs1,7.26%
14,O=C(c1ccc(Br)cc1)N1CCOCC1,-7.52%
15,Cn1c(=O)c(-c2ccccc2)c2c3c(cccc31)C(=O)c1ccccc1-2,-8.64%
16,N#CC1=C(N)SC(N)=C(C#N)C1c1cccnc1,0.731%
17,CCn1nc(C)c(C2C(C#N)=C(N)OC3=C2C(=O)CC(C)(C)C3)c1C (stereo not shown),4.56%
18,O=C(NC1CCCCC1)C1CCN(S(=O)(=O)c2ccc3[nH]c(-c4ccccc4)nc3c2)CC1,-5.92%
19,CCOC(=O)c1ccc(-c2ccc(C3NC(=O)c4c(sc5c4CCN(C)C5)N3)o2)cc1 (stereo not shown),6.08%
20,COc1ccc(-c2nc(CSc3nc4cccnc4[nH]3)c(C)o2)cc1,-3.05%

# — paper PMC6919601, “Identification of Plasmodium dipeptidyl aminopeptidase allosteric inhibitors by high throughput screening” (PLoS ONE, 2019)
